# The list shows a part of the results.
# B1: chr12:104348774:104348848:+|3pUTR|ENSG00000198431|msi1_unk|total|mutant (ssRNA)
# RNA: GGGAGUUCUACAGUCCGACGAUCCGUUGUCAAGUUUUCCCGGGUUGAAUUUUUUUCUUUUUUCUCCAUGGUGUUAAUGAUAUCCGAGAUGAAAAACGUCCGCAGUUGAUUUUUGUCCAAAAGCAAGUCAUGGCCCGAGUAUCCCAACAGAGGAUUGAGCAUCA
# B2: chr5:150649000:150649101:+|CDS|ENSG00000171992|msi1|total|mutant (ssRNA)
# RNA: GGGAGUUCUACAGUCCGACGAUCCAGGCCUUUUGGGAUCCAGGCGCCAGGGGGCACCAGCCAGAUGGAGAGGAGCCCCAUGCCCGAGAGACGACAUUUUGGGGAGAAGGCCCCGGCUCCCCAGCCCCCCAGUUUGCCAGACAGCAACAGAGGAUUGAGCAUCA
# B3: chr5:148442723:148442824:+|3pUTR|ENSG00000145868|unk|FALSE|unique (ssRNA)
# RNA: GGGAGUUCUACAGUCCGACGAUCUUAUGAGCUUAAAAAAAAGUGAGUUUGAGAGGGAAAUGGAAAAGUUUCCAGAGUAUUUCUAGUAAUUUAUUUCCACAUUGAAUUGUGUAUAUGCUUUAUCUUGAAUAUAAAAUAAAAGUUCAACAGAGGAUUGAGCAUCA
# B4: chr14:94062441:94062542:-|CDS|ENSG00000089737|msi1|total|mutant (ssRNA)
# RNA: GGGAGUUCUACAGUCCGACGAUCCCUCCAAGUAACACCGAAGCACCACCUGGAGAGACCAGAACUGAGGCCGGAGCUGAGACCCGAUCACCAGGCAAGGCUGAAGCUGAGUCUGAUGCAUUGCCUGACGAUACUGUAAUUGAGCAACAGAGGAUUGAGCAUCA
# B5: chr2:218454035:218454136:-|3pUTR|ENSG00000135913|msi1|FALSE|unique (ssRNA)
# RNA: GGGAGUUCUACAGUCCGACGAUCGAGAUUUCUUCACACAGUAUGUUCAUCAUAUAUCAUCAUCAUUAUUAUGGUGGUAAAGAUAGAAUCUUUUUUCUUUUUUGUCAUUCUGCCAUGGAGCAGCAUUACCCUAAUGGAUUGCAACAACAGAGGAUUGAGCAUCA
# B6: chr12:130875966:130876013:+|3pUTR|ENSG00000132341|msi1_unk|total|mutant (ssRNA)
# RNA: GGGAGUUCUACAGUCCGACGAUCGAUGAGGAUGAUGACCUGUGAGAAUGAAGCUGGAGCCCAGCGUCAGAAGUCCCGUUUUACCGGCAGCUGUCCUGUGAUGUCAGCGGUGCAGCGUGUGUGCCACCUCAUUAUUAUCCCGCUCAACAGAGGAUUGAGCAUCA
# B7: chr2:42328916:42329027:+|CDS|ENSG00000143924|unk|FALSE|unique (ssRNA)
# RNA: GGGAGUUCUACAGUCCGACGAUCAGAAGGAUCUGAUGGGACAGAUAUCAAUGCACUGGUGCGAUCCCACAAUAGAAAGGUGAUAGCUGUUGCCGAUGACUUUUGUAAAGUCCAUCUGUUUCAGUAUCCCUGCUCCAAAGCAAACAACAGAGGAUUGAGCAUCA
# B8: chr5:150401636:150402250:-|three_prime_utr|ENSG00000019582|control|control|control (ssRNA)
# RNA: GGGAGUUCUACAGUCCGACGAUCCUGCUGCCCAAUCUCCAUCUGUCAACAGGGGCGUGAGGUCCCAGGAAGUGGCCAAAAGCUAGACAGAUCCCCGUUCCUGACAUCACAGCAGCCUCCAACACAAGGCUCCAAGACCUAGGCCAACAGAGGAUUGAGCAUCA
# B9: chr5:35065091:35066102:-|CDS|ENSG00000113494|control|control|control (ssRNA)
# RNA: GGGAGUUCUACAGUCCGACGAUCAAAAUCCUCUCAAACCAUUAAGUCUAGAGAAGAGGGAAAGGCAACCCAGCAGAGGGAGGUAGAAAGCUUCCAUUCUGAGACUGACCAGGAUACGCCCUGGCUGCUGCCCCAGGAGAAAACCAACAGAGGAUUGAGCAUCA
# B10: chr1:225845535:225846932:-|three_prime_utr|ENSG00000196187|control|control|control (ssRNA)
# RNA: GGGAGUUCUACAGUCCGACGAUCGAACAGGUUGGGAGGUGGCCAGUGCUCCUGCCAGCUGUGCACACAUCUCUGUAUCCCGCUAGAGUUCUGUGUUUUUGUAUCAUGUUGUCAGGGACGCUAGCUGGGUCAGGGUUACCCCAUCAACAGAGGAUUGAGCAUCA
# B11: ENSG00000107863:be:win_4401|CDS|ENSG00000107863|bound_else_gene|NA|bound_elsewhere_windowed (ssRNA)
# RNA: GGGAGUUCUACAGUCCGACGAUCAAAACAGAAGAUCAUCAUUGCCAAAGAAAACAGCACUAGGAAAGACCCCAGCACGACAAAAGAUGAAAAGAUAUCACUAGGAAAAGAGAGCACGCCUUCUGAAGAACCCUCACCACCACACAACAGAGGAUUGAGCAUCA
# B12: chr1:109062613:109062715:-|3pUTR|ENSG00000197780|unk|FALSE|unique (ssRNA)
# RNA: GGGAGUUCUACAGUCCGACGAUCAGUUCUGAAUACACAGGUUUUGUGUGUAUUUACUCUAUGUAUUAAAUUAUUAUUGCCCUUAGUUUAAAGUAAGGAUUACAAUUGGAUUUAAGUAGAUCACUGAAUGUUAUUGUUUAUGAACAACAGAGGAUUGAGCAUCA
# B13: chr3:127036428:127036535:+|3pUTR|ENSG00000114554|msi1|total|mutant (ssRNA)
# RNA: GGGAGUUCUACAGUCCGACGAUCGCGUGUGGCUGGGGCGUGGCCACCACAGAGCACAUGGCUGUGUCCCGGCGCAAGCACUUCCGCAGUAUCUGUUUACAUGCGCAAGGAUCAAGCCGACUACCUGUGCUGUCUACUGGGACACAACAGAGGAUUGAGCAUCA
# B14: chr18:46811193:46811294:-|3pUTR|ENSG00000078043|unk|total|mutant (ssRNA)
# RNA: GGGAGUUCUACAGUCCGACGAUCUUUUUUUUCAUUUUUUUAAAAUGAUAUCUUACCUGAAACUACAAACGACAAAAGAGAAUCCGAAAUGUUUGAAUUAAAGUGAAGAAGGGUUGGGGGAGAUGGGCCUGAACCCACUUCCUGCAACAGAGGAUUGAGCAUCA
# Biological target: MSI1 full-length (mouse, UniProt Q61474 1-362)
# Assay: nsRBNS (natural sequence RNA bind-n-seq); RBNS binding buffer (assumed for nsRBNS): 25 mM Tris pH 7.5, 150 mM KCl, 3 mM MgCl2, 0.01% Triton X-100, 500 ug/ml BSA, 20 U/ml SUPERase-In, 4 C; UNK is unkempt and MSI1 is Musashi-1; names of the RNAs are library labels; protein concentration not given here; high values mean tight binding
# Sequence of UniProt Q61474 (Q61474 whole entry): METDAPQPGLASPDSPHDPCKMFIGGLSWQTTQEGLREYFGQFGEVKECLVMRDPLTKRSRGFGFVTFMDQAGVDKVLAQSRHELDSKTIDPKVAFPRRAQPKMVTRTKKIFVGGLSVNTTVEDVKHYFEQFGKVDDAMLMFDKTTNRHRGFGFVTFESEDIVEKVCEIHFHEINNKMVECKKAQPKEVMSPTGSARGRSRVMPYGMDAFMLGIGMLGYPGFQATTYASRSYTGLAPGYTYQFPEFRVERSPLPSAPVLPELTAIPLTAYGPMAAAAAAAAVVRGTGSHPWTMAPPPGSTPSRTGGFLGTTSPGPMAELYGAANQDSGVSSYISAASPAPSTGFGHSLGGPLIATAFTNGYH
row,Binder,binding signal [enrichment R]
1,B1,0.246
2,B2,0.42
3,B3,0.985
4,B4,0.403
5,B5,0.284
6,B6,0.476
7,B7,0.284
8,B8,0.462
9,B9,0.733
10,B10,0.671
11,B11,2.08
12,B12,1.17
13,B13,0.42
14,B14,0.32

# Reference: publication PMC12136788
